Results taken from the supplement of paper PMC3334620.
The full ranking holds about 33,000 sequences; the median of “E-score (-0.5 to 0.5)” is about -0.054, and the highest 2% start at about 0.39. This is one part of the list.

Each sequence was assayed against Ylr278c (UniProt Q05854) (assay: PBM E-score (8-mer binding enrichment) (E-score (-0.5 to 0.5)); higher = stronger / more preferred TF binding; most listed sequences are background and not binding sites). Conditions: protein concentration: 200 nM; construct: GST-DNA-binding domain.
Method in brief: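 Full-length yeast transcription factors or their DNA-binding domains, GST-tagged and expressed with PURExpress, were applied at about 100-200 nM to universal all-10-mer Agilent arrays. These arrays had been made double-stranded by primer extension on fresh or once-stripped slides. Detection used fluorescent anti-GST, normalisation used masliner, and E-scores for ungapped eight-base words pooled with reverse complements came from the Universal PBM Analysis Suite.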

| Sequence | PBM E-score |
| --- | --- |
| CTGCTACC | -0.197 |
| ATCGTGAC | -0.0519 |
| CAATTACC | 0.13 |
| ATTCTCGA | -0.171 |
| GCTTAGTA | -0.133 |
| ATCTAAAT | 0.0897 |
| CTTCGGTC | 0.151 |
| CTTTCGCA | -0.167 |
| AACTAAAC | 0.0172 |
| CGCCGGAG | 0.459 |
| GCCATCGA | -0.0575 |
| CAGGAGGC | -0.0031 |
| CACGAGGC | -0.143 |
| CGGCAAAA | 0.188 |
| CGGTCGTA | 0.142 |
| GCAAAAGC | 0.00747 |
| GGGGTCCA | -0.0346 |
| ACGAGGCA | -0.241 |
| CAAGGTAG | -0.149 |
| GGAACTGA | 0.0499 |
| ACGGATAG | 0.103 |
| ACGGCCGA | 0.246 |
| CAGCGTCG | 0.075 |
| ATGTAAGG | 0.0178 |
| CCAGAGCC | -0.136 |
| CGCTTCTC | 0.168 |

| Sequence | PBM E-score |
| --- | --- |
| GACTAATA | -0.0781 |
| GATCTATA | -0.0165 |
| CTGGCCAC | -0.253 |
| ACCTGTCC | 0.0205 |
| CAAACCCG | 0.261 |
| AGTTAGCC | -0.039 |
| TAGAAATA | -0.0866 |
| AGTGAACA | -0.181 |
| TGGTCGAA | -0.368 |
| GATTTGTA | -0.0321 |
| GTTGTTGA | -0.184 |
| CGCTTTAG | -0.025 |
| AGAATGCC | 0.049 |
| GAAATGAC | -0.0184 |
| AATTTTGC | 0.0144 |
| AAGCCCTG | -0.314 |
| AATATGCG | 0.11 |
| GCAGGACC | 0.0778 |
| CCACTATA | -0.182 |
| GTTTCCGA | 0.369 |
| CCCATTCG | -0.0777 |
| GCCGGAGC | 0.452 |
| CAGCATCG | -0.221 |
| AGGGATTC | -0.0988 |
| CGCTGGCA | -0.113 |
| CCATATGC | -0.00309 |

| Sequence | PBM E-score |
| --- | --- |
| CCTATTAG | -0.117 |
| CCCCATAA | 0.0806 |
| GCGCCATA | -0.117 |
| AGTTTGCA | -0.147 |
| AAATGCAG | -0.192 |
| TCTTGCCA | -0.278 |
| TCAGGGAA | -0.178 |
| CGTCGTAA | -0.119 |
| CACAGATC | -0.0312 |
| AATGGGTC | 0.0223 |
| CCGATCCC | 0.268 |
| AAGATTGG | -0.161 |
| GGCACGAC | -0.059 |
| AAATTCTG | 0.0321 |
| CAACTTCC | 0.22 |
| ACCTAGTG | -0.16 |
| AGAGACTA | -0.0856 |
| CACAGCTC | -0.127 |
| CATGTGGG | -0.117 |
| AACGGTTC | -0.0646 |
| CACAGTGA | -0.284 |
| ACCTGTTC | 0.00857 |
| AAAGACAA | 0.0683 |
| CCGGCAAA | 0.36 |
| ACACCATC | -0.209 |
| AGCACAAT | -0.268 |

| Sequence | PBM E-score |
| --- | --- |
| GTAATAAA | 0.0333 |
| GTCAGTTA | -0.119 |
| ACCGACGT | 0.106 |
| ATCTACTG | -0.131 |
| GCACGTTA | -0.196 |
| CCCAGGCG | -0.0805 |
| CTCTTCTC | -0.106 |
| CATTCACA | -0.25 |
| ACTTGCTC | -0.145 |
| ACCATAAT | -0.11 |
| CATGTTTA | -0.0727 |
| AAATGTTC | -0.0989 |
| CTTTGAGA | -0.0977 |
| ATTCCGCA | 0.356 |
| AACCCATG | -0.00975 |
| CCCCCTTC | -0.29 |
| CAACATTC | -0.0869 |
| TGCCACAA | -0.156 |
| CGTTACGC | -0.0714 |
| CTAAAAGC | 0.0641 |
| AGCGCTTC | 0.0609 |
| CAAAATGG | 0.131 |
| CCCGAACG | 0.236 |
| TAACGGAA | 0.312 |
| CACTTGGG | -0.116 |
| ACCCGGGT | 0.33 |

| Sequence | PBM E-score |
| --- | --- |
| AAGAGCAT | -0.135 |
| ACATGGTG | -0.17 |
| ACGGGACC | 0.0315 |
| CTCGAGGA | -0.244 |
| ATGGCAAG | -0.115 |
| AGTATCAG | -0.116 |
| CTGATCCC | -0.134 |
| CTACATAG | -0.101 |
| AAGCTCAC | -0.11 |
| AGATGGCT | -0.123 |
| CCCCTCGG | 0.0865 |
| ACCACGAC | -0.162 |
| GCTTGCGA | -0.0301 |
| ATTCATTG | -0.113 |
| ATAAGTGA | -0.229 |
| AGCTGCCC | 0.0319 |
| AGCGTAGA | -0.0682 |
| AATCAGGA | -0.138 |
| GCCAATAC | -0.0493 |
| ATCACATG | -0.163 |
| ACAACGGA | 0.347 |
| GACCCGCC | 0.135 |
| ACTCGCCG | 0.28 |
